# Results from the supplement of paper PMC8728848.
# This is one part of the list.
# B1: DCIR (Homo sapiens), Q9UMR7 (protein)
# chain: MTSEITYAEVRFKNEFKSSGINTASSAASKERTAPHKSNTGFPKLLCASLLIFFLLLAISFFIAFVIFFQKYSQLLEKKTTKELVHTTLECVKKNMPVEETAWSCCPKNWKSFSSNCYFISTESASWQDSEKDCARMEAHLLVINTQEEQDFIFQNLQEESAYFVGLSDPEGQRHWQWVDQTPYNESSTFWHPREPSDPNERCVVLNFRKSPKRWGWNDVNCLGPQRSVCEMMKIHL
# Tests used:
# Assay in all cases: glycan array binding signal (z-score within array); higher = stronger binding
# Conditions in all cases: glycan notation: IUPAC condensed, linker removed
# [1] = molecular target: Fuc(a1-2)Gal
# Method in brief: (§1)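 The binding signal is a Z-score computed within each array and averaged over linkers. Arrays of the same protein sequence at different concentrations or buffers were also averaged together. Data originate from 3228 arrays in the Consortium for Functional Glycomics database, kept only where the protein sequence was available.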
# [2] = molecular target: Fuc(a1-2)Gal(b1-3)GalNAc
# Method in brief: as §1
# [3] = molecular target: Fuc(a1-2)Gal(b1-3)GalNAc(b1-3)Gal
# Method in brief: as §1
# [4] = molecular target: Fuc(a1-2)Gal(b1-3)GalNAc(b1-3)Gal(a1-4)Gal(b1-4)Glc
# Method in brief: as §1
# [5] = molecular target: Fuc(a1-2)Gal(b1-3)GalNAc(b1-4)[Neu5Ac(a2-3)]Gal(b1-4)Glc
# Method in brief: as §1
# [6] = molecular target: Fuc(a1-2)Gal(b1-3)GlcNAc
# Method in brief: as §1
# [7] = molecular target: Fuc(a1-2)Gal(b1-3)GlcNAc(b1-3)Gal(b1-4)Glc
# Method in brief: as §1
# [8] = molecular target: Fuc(a1-2)Gal(b1-3)[Fuc(a1-4)]GlcNAc
# Method in brief: as §1
# [9] = molecular target: Fuc(a1-2)Gal(b1-4)Glc
# Method in brief: as §1
# [10] = molecular target: Fuc(a1-2)Gal(b1-4)GlcNAc
# Method in brief: as §1
# [11] = molecular target: Fuc(a1-2)Gal(b1-4)GlcNAc(b1-3)Gal(b1-4)GlcNAc
# Method in brief: as §1
# [12] = molecular target: Fuc(a1-2)Gal(b1-4)GlcNAc(b1-3)Gal(b1-4)GlcNAc(b1-3)Gal(b1-4)GlcNAc
# Method in brief: as §1
# [13] = molecular target: Fuc(a1-2)Gal(b1-4)[Fuc(a1-3)]GlcNAc
# Method in brief: as §1
# [14] = molecular target: Fuc(a1-2)Gal(b1-4)[Fuc(a1-3)]GlcNAc(b1-3)Gal(b1-4)[Fuc(a1-3)]GlcNAc
# Method in brief: as §1
# [15] = molecular target: Fuc(a1-2)Gal(b1-4)[Fuc(a1-3)]GlcNAc(b1-3)Gal(b1-4)[Fuc(a1-3)]GlcNAc(b1-3)Gal(b1-4)[Fuc(a1-3)]GlcNAc
# Method in brief: as §1
# [16] = molecular target: Fuc(a1-2)GlcNAc
# Method in brief: as §1
# [17] = molecular target: Fuc(a1-2)[Gal(a1-3)]Gal
# Method in brief: as §1
# [18] = molecular target: Fuc(a1-2)[Gal(a1-3)]Gal(b1-3)GlcNAc
# Method in brief: as §1
# [19] = molecular target: Fuc(a1-2)[Gal(a1-3)]Gal(b1-4)Glc
# Method in brief: as §1
# [20] = molecular target: Fuc(a1-2)[Gal(a1-3)]Gal(b1-4)GlcNAc
# Method in brief: as §1
# [21] = molecular target: Fuc(a1-2)[Gal(a1-3)]Gal(b1-4)[Fuc(a1-3)]GlcNAc
# Method in brief: as §1
# [22] = molecular target: Fuc(a1-2)[Gal(a1-4)]Gal(b1-4)GlcNAc
# Method in brief: as §1
# [23] = molecular target: Fuc(a1-2)[GalNAc(a1-3)]Gal
# Method in brief: as §1
# [24] = molecular target: Fuc(a1-2)[GalNAc(a1-3)]Gal(b1-3)GlcNAc
# Method in brief: as §1
# [25] = molecular target: Fuc(a1-2)[GalNAc(a1-3)]Gal(b1-4)Glc
# Method in brief: as §1
# [26] = molecular target: Fuc(a1-2)[GalNAc(a1-3)]Gal(b1-4)GlcNAc
# Method in brief: as §1
# [27] = molecular target: Fuc(a1-2)[GalNAc(a1-3)]Gal(b1-4)[Fuc(a1-3)]GlcNAc
# Method in brief: as §1
# [28] = molecular target: Fuc(a1-2)[GalNAc(a1-4)]Gal(b1-4)GlcNAc
# Method in brief: as §1
# [29] = molecular target: Fuc(a1-2)[GalNAc(b1-3)]Gal
# Method in brief: as §1
# [30] = molecular target: Fuc(a1-3)GlcNAc
# Method in brief: as §1
binder,measurement,setting,value
B1,glycan array binding signal (z-score),[1],-0.187
same,glycan array binding signal (z-score),[2],-0.111
same,glycan array binding signal (z-score),[3],-0.347
same,glycan array binding signal (z-score),[4],-0.026
same,glycan array binding signal (z-score),[5],0.049
same,glycan array binding signal (z-score),[6],-0.136
same,glycan array binding signal (z-score),[7],-0.207
same,glycan array binding signal (z-score),[8],-0.419
same,glycan array binding signal (z-score),[9],-0.479
same,glycan array binding signal (z-score),[10],-0.389
same,glycan array binding signal (z-score),[11],-0.461
same,glycan array binding signal (z-score),[12],-0.35
same,glycan array binding signal (z-score),[13],-0.249
same,glycan array binding signal (z-score),[14],-0.367
same,glycan array binding signal (z-score),[15],-0.25
same,glycan array binding signal (z-score),[16],-0.484
same,glycan array binding signal (z-score),[17],-0.412
same,glycan array binding signal (z-score),[18],-0.141
same,glycan array binding signal (z-score),[19],-0.422
same,glycan array binding signal (z-score),[20],-0.284
same,glycan array binding signal (z-score),[21],-0.381
same,glycan array binding signal (z-score),[22],-0.153
same,glycan array binding signal (z-score),[23],-0.289
same,glycan array binding signal (z-score),[24],-0.424
same,glycan array binding signal (z-score),[25],-0.363
same,glycan array binding signal (z-score),[26],-0.334
same,glycan array binding signal (z-score),[27],-0.12
same,glycan array binding signal (z-score),[28],-0.114
same,glycan array binding signal (z-score),[29],-0.31
same,glycan array binding signal (z-score),[30],-0.36
